In the BET-seq Pho4 binding data (Le et al. 2018):
Some of the results follow. Values were computed here from the reads of four pooled replicates and scatter widely.

Each sequence was assayed against T1, Pho4 (S. cerevisiae) (UniProt P07270) (assay: relative binding free energy (BET-seq); higher = weaker binding). Details: reference: library average.
T1 sequence: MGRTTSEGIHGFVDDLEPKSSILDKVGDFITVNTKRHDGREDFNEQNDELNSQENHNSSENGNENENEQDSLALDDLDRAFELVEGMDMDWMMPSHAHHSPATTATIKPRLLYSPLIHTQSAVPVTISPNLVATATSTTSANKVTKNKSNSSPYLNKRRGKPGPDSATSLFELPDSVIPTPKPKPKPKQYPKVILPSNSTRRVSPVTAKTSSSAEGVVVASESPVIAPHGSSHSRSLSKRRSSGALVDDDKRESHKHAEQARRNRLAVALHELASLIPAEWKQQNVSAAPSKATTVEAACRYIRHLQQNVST

Sequence	relative binding free energy [kcal/mol]
AGGGTCACGTGCCGGT	0.02
GTTTGCACGTGTTTGA	0.12
GCGGGCACGTGGATCG	0.04
TTATGCACGTGACTAG	0.04
TGGATCACGTGGTACA	0.13
TGTCGCACGTGTAGGT	-0.06
TAAGTCACGTGGGTAT	0.06
ATACGCACGTGGTGTT	-0.28
AGGTACACGTGGGTCT	-0.12
ACCGGCACGTGGGGTG	-0.3
GTTATCACGTGCGTGC	0.13
GCATACACGTGGGTAG	-0.05
TACTGCACGTGTTAGG	0.05
TGGAGCACGTGAGAGT	0.29
GGCGGCACGTGTGCTG	-0.01
GTCATCACGTGGTTTA	0.26
ATGCACACGTGTTTAT	0.1
GATGGCACGTGTTTAT	0.01
GTTTACACGTGTTTTG	0.19
GTAGGCACGTGGGTGC	-0.16
ATTGGCACGTGTAGGA	0.06
GGGGCCACGTGGCGGC	-0.19
TTTAACACGTGAATAG	0.31
TAGATCACGTGATTTG	0.23
TCATACACGTGTAGGG	0.09

Sequence	relative binding free energy [kcal/mol]
GTATTCACGTGAAGTG	0.3
GGCGGCACGTGATATG	0.12
AATTGCACGTGGGAAT	0
TGATGCACGTGCTCGT	0
CGTTGCACGTGTATTA	-0.01
TGGGCCACGTGGTTAT	-0.09
CAGTACACGTGGGGTA	-0.18
AGGGGCACGTGAGTGC	0.13
AGTTGCACGTGCAAAT	0.2
ATGATCACGTGAGTTG	0.3
AGTGACACGTGAGATA	0.16
AAGGCCACGTGTTAGT	-0.04
ACGGGCACGTGCGGGG	-0.22
TGTAACACGTGTAGGA	0.16
AGTCGCACGTGTTTGG	-0.05
TCGGACACGTGTTAGG	0.07
ATTAGCACGTGCTGGG	-0.13
AGAAGCACGTGTGTGC	-0.07
ATGTCCACGTGTAGGG	0.01
GTTCCCACGTGGGGGT	-0.26
GAACGCACGTGATGGT	0.17
TAATTCACGTGGGTCA	0.12
AAGTCCACGTGGGTTG	-0.12
TTGTTCACGTGTAAGG	0.27
TAGAGCACGTGCTTGT	-0.23

Sequence	relative binding free energy [kcal/mol]
AATGGCACGTGTGGCG	-0.09
GATGTCACGTGGTGGA	0.13
AACGGCACGTGGGCTG	-0.21
GATTTCACGTGCTGTT	0.35
ATCGTCACGTGAGGTC	0.27
GGTGTCACGTGATAGT	0.3
GTGATCACGTGGTACG	0.07
GGTAACACGTGTGTCG	0.08
TTAATCACGTGCAGGT	0.28
AGGTCCACGTGTAAGG	0.34
TAGTTCACGTGTTGGT	0.27
GGCCTCACGTGGGTGG	-0.04
TGCATCACGTGTGAGG	0.14
CGCCGCACGTGGGGTG	-0.36
GTAATCACGTGTTTTG	0.16
GCGGTCACGTGCGGGA	0.21
ATGTACACGTGGGGAG	-0.1
TGCAACACGTGATTTT	0.23
AAGTTCACGTGCAAGG	0.25
ATGATCACGTGGTCTG	-0.07
GTGCTCACGTGGTGGC	0.33
GGTGGCACGTGTCGGC	0.01
TGAATCACGTGTTTCG	0.15
TCATGCACGTGGGAGA	0.08
GGTCGCACGTGAAGGG	0.26

Sequence	relative binding free energy [kcal/mol]
GGGGTCACGTGTAACG	0.33
TGGGTCACGTGCAGCT	0.02
CAGGGCACGTGTCATG	-0.02
CTTAGCACGTGGTTAA	-0.18
GGCGGCACGTGGTAGT	-0.2
AGGGGCACGTGGGTGA	-0.21
TGACTCACGTGGTATT	0.25
GTCTGCACGTGAGGCT	0.34
TAGCTCACGTGGTATG	0.06
TGACTCACGTGGTGGC	0.21
TTGCTCACGTGTTGGT	0.29
TTCTTCACGTGAAATT	0.49
GTAGGCACGTGGAGGA	-0.02
TTGTTCACGTGGCAGA	0.2
TTGGGCACGTGGTAAT	0.01
TTTTACACGTGTCGGT	0.11
AGGATCACGTGGTGGA	0.11
TTTCTCACGTGTGGAA	0.16
AGGAGCACGTGTGGTT	0.05
TTTTACACGTGGAAAA	0.23
TGCGGCACGTGGGCGG	-0.33
GGGAACACGTGGAGTT	0.04
ATTGGCACGTGAGAGC	0.14
GAGTACACGTGGGCGT	0.03
TGTGACACGTGTAGCA	0.01

Sequence	relative binding free energy [kcal/mol]
ATTTACACGTGAGGTT	0.33
AATTTCACGTGGGGAT	0.17
TCTTACACGTGGGGCT	0.02
ATGGACACGTGGAGTC	0.12
GTGGTCACGTGAGGGA	0.38
CTGCACACGTGGGGTT	-0.08
GTATTCACGTGGCAGG	0.17
TTAAACACGTGTTTAG	-0.06
CGTTACACGTGGGCGT	-0.06
TCGTGCACGTGGTGCT	0
GTTTTCACGTGTGGCA	0.42
CCGTGCACGTGTTTTT	0.03
CATGTCACGTGTATGG	0.18
TTGGACACGTGGGCTC	0.08
CTAGTCACGTGGTGGC	-0.02
CTTTTCACGTGAAGAT	0.4
TCGTTCACGTGGTCTT	0.15
AGGTACACGTGAACGG	0.25
TTGGGCACGTGTAAGT	0.13
CTTTTCACGTGTCAGT	0.29
TGTTACACGTGTACGG	0.18
CTGGTCACGTGTGCGT	0.15
TTGGACACGTGATGCA	0.14
TTGGACACGTGAGAAT	0.31
AGTTGCACGTGCGGCG	-0.03

Sequence	relative binding free energy [kcal/mol]
TTTCGCACGTGTGGGA	0.02
GGGTACACGTGGGTGC	-0.08
TGTTTCACGTGTTTTA	0.31
CAGGGCACGTGTTTGT	-0.14
GCGGTCACGTGGCAGG	0.09
ATAAACACGTGTGCGT	-0.03
ATCTGCACGTGTAGGT	-0.05
AATGTCACGTGTTTGC	0.06
GGAATCACGTGGAGTT	0.2
AAGATCACGTGGATGG	0.06
CGGTACACGTGGATGT	0.09
GGGTCCACGTGAAAGG	0.25
AATCGCACGTGATTGT	0.09
CTAGTCACGTGGTTTT	-0.05
CGGGTCACGTGGTTGG	0.11
GGGGTCACGTGCGAGC	0.14
TGAAGCACGTGTCGGT	-0.1
AGTGCCACGTGCGGTT	-0.31
GGGGGCACGTGCATGT	-0.21
GAAGTCACGTGATTTT	0.37
AGTTGCACGTGTCAGT	0.13
